Experimental data from the supplement of paper PMC10037445.
In all, about 2,900 compounds were measured (“IRF Lucia reporter activity, fold change vs agonist alone”: median about 0.9, highest 2% from about 2.8 on). The list shows a part of the results.

How the values were obtained:
RAW-Dual [1] = test: IRF Lucia reporter activity, fold change vs agonist alone; higher = enhanced IRF activity; details: library stock concentration (final ~1000-fold dilution): 10 mM, agonist: MPLA (TLR4) […]
Summary of the method: (§1)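 RAW-Dual macrophages were seeded in DMEM at 50,000 cells/well in 384-well plates, given 50 nL of library stock by pin tool, and given a PRR agonist 1 h later. Plates were held at 37 °C, 5% CO2 for 20 hours, after which supernatant was read for IRF by QuantiLuc luminescence and for NF-κB by QuantiBlue absorbance at 620 nm. Reporter activity is expressed as fold change over wells that received agonist alone. A well was called cytotoxic when IncuCyte confluency fell below 70% of agonist controls in both mask sets.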

RAW-Dual [2] = test: IRF Lucia reporter activity, fold change vs agonist alone; cytotoxicity flag (confluency mask): not cytotoxic; higher = enhanced IRF activity
Summary of the method: as §1

RAW-Dual [3] = test: IRF Lucia reporter activity, fold change vs agonist alone; cytotoxicity flag (confluency mask): cytotoxic (confluency <70% of control); higher = enhanced IRF activity
Summary of the method: as §1

[4] = cytotoxicity flag (confluency mask): not cytotoxic
[5] = agonist: 3'3'-cGAMP (STING) 10 ug/mL
[6] = cytotoxicity flag (confluency mask): cytotoxic (confluency <70% of control)

Compound: COc1c(OC2OC(CO)C(O)C(O)C2O)cc2c(c1OC)-c1ccc(SC)c(=O)cc1C(NC(C)=O)CC2 (stereo not given)
- IRF Lucia reporter activity (RAW-Dual [1]; [4]): 1

Compound: COc1c(OC2OC(CO)C(O)C(O)C2O)cc2c(c1OC)-c1ccc(SC)c(=O)cc1C(NC(C)=O)CC2 (stereo not given) (library stock concentration (final ~1000-fold dilution): 10 mM)
- IRF Lucia reporter activity (RAW-Dual [2]; [5]): 1.02
- IRF Lucia reporter activity (RAW-Dual [2]; agonist: LPS (TLR4) 0.1 ug/mL): 1.38

Compound: O=C(O)c1ccc(-n2nc(-c3ccccc3O)nc2-c2ccccc2O)cc1 (library stock concentration (final ~1000-fold dilution): 10 mM)
- IRF Lucia reporter activity (RAW-Dual [2]; [5]): 1.02
- IRF Lucia reporter activity (RAW-Dual [2]; agonist: LPS (TLR4) 0.1 ug/mL): 1.11

Compound: O=C(O)c1ccc(-n2nc(-c3ccccc3O)nc2-c2ccccc2O)cc1
- IRF Lucia reporter activity (RAW-Dual [1]; [4]): 1.08

Compound: CC(Oc1cc(-n2cnc3ccc(CN4CCN(C)CC4)cc32)sc1C(N)=O)c1ccccc1C(F)(F)F (stereo not given) (library stock concentration (final ~1000-fold dilution): 10 mM)
- IRF Lucia reporter activity (RAW-Dual [2]; [5]): 1.07
- IRF Lucia reporter activity (RAW-Dual [2]; agonist: LPS (TLR4) 0.1 ug/mL): 1.6

Compound: CC(Oc1cc(-n2cnc3ccc(CN4CCN(C)CC4)cc32)sc1C(N)=O)c1ccccc1C(F)(F)F (stereo not given)
- IRF Lucia reporter activity (RAW-Dual [1]; [4]): 1.11

Compound: Cc1ccc(NCCN(C)CCNc2ccnc3cc(Cl)ccc23)c2c(=O)c3ccccc3sc12 (library stock concentration (final ~1000-fold dilution): 2 mM)
- IRF Lucia reporter activity (RAW-Dual [2]; [5]): 0.792
- IRF Lucia reporter activity (RAW-Dual [2]; agonist: LPS (TLR4) 0.1 ug/mL): 1.02

Compound: CCC(C)(C)C(=O)OC1CC(C)C=C2C=CC(C)C(CCC3CC(O)CC(=O)O3)C21 (stereo not given) (library stock concentration (final ~1000-fold dilution): 10 mM)
- IRF Lucia reporter activity (RAW-Dual [3]; [5]): 0.54
- IRF Lucia reporter activity (RAW-Dual [3]; agonist: LPS (TLR4) 0.1 ug/mL): 0.635

Compound: CCC(C)(C)C(=O)OC1CC(C)C=C2C=CC(C)C(CCC3CC(O)CC(=O)O3)C21 (stereo not given)
- IRF Lucia reporter activity (RAW-Dual [1]; [6]): 0.487

Compound: CN1CCN(Cc2ccc(NC(=O)Nc3ccc(Oc4cc(NC(=O)C5CC5)ncn4)cc3)cc2C(F)(F)F)CC1 (library stock concentration (final ~1000-fold dilution): 10 mM)
- IRF Lucia reporter activity (RAW-Dual [3]; [5]): 0.00991
- IRF Lucia reporter activity (RAW-Dual [3]; agonist: LPS (TLR4) 0.1 ug/mL): 0.00845

Compound: CN1CCN(Cc2ccc(NC(=O)Nc3ccc(Oc4cc(NC(=O)C5CC5)ncn4)cc3)cc2C(F)(F)F)CC1
- IRF Lucia reporter activity (RAW-Dual [1]; [6]): 0.606

Compound: COCC1CC(c2ncc(-c3ccc4c(c3)COc3cc5c(ccc6[nH]c(C7CCC(C)N7C(=O)C(NC(=O)OC)C(C)C)nc65)cc3-4)[nH]2)N(C(=O)C(NC(=O)OC)c2ccccc2)C1 (stereo not given) (library stock concentration (final ~1000-fold dilution): 10 mM)
- IRF Lucia reporter activity (RAW-Dual [2]; [5]): 0.767
- IRF Lucia reporter activity (RAW-Dual [2]; agonist: LPS (TLR4) 0.1 ug/mL): 0.91

Compound: COCC1CC(c2ncc(-c3ccc4c(c3)COc3cc5c(ccc6[nH]c(C7CCC(C)N7C(=O)C(NC(=O)OC)C(C)C)nc65)cc3-4)[nH]2)N(C(=O)C(NC(=O)OC)c2ccccc2)C1 (stereo not given)
- IRF Lucia reporter activity (RAW-Dual [1]; [4]): 0.857
